# Assay results: the supplement of paper PMC3334620
# Over roughly 33,000 sequences, “E-score (-0.5 to 0.5)” has its median near -0.016; the highest 2% begin near 0.32. The list shows a part of the results.
# Biological target: T1, Stp1 (UniProt B3LFK1)
# T1 sequence: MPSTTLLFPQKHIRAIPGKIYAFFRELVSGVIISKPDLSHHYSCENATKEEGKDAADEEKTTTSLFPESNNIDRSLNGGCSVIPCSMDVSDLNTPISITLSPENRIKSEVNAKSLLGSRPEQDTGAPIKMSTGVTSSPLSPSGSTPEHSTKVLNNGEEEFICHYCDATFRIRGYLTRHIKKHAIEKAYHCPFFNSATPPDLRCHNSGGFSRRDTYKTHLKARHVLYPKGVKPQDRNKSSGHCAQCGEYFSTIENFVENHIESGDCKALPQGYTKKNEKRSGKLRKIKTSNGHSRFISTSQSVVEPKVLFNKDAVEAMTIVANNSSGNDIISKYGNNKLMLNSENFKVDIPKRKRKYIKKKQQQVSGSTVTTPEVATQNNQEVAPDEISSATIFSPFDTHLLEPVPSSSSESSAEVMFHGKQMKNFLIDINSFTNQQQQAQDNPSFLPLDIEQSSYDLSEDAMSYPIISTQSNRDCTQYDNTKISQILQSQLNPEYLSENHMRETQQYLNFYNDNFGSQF
# Test: PBM E-score (8-mer binding enrichment) (E-score (-0.5 to 0.5)); higher = stronger / more preferred TF binding; most listed sequences are background and not binding sites
# Details: protein concentration: 200 nM; construct: GST-full length
# Protocol: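 Universal 'all 10-mer' protein binding microarrays (Agilent AMADID 015681) probed with GST-tagged S. cerevisiae TFs (full-length or DBD) made by in vitro transcription/translation (PURExpress), about 100-200 nM. Bound TF was detected with fluorescent anti-GST. Each ungapped 8-mer (which stands for itself and its reverse complement) is scored by the PBM enrichment score (E-score), a modified Wilcoxon-Mann-Whitney statistic from -0.5 to +0.5, computed with the Universal PBM Analysis Suite. Scale: above 0.35 generally sequence-specific binding.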
row,Sequence,PBM E-score
1,AGCACGCT,-0.227
2,TCCATGCA,0.206
3,ATAACTCG,0.0833
4,GTTATAAC,0.104
5,CCCAAGAA,0.0548
6,AATGCGAA,0.0224
7,GTACGTAA,0.0741
8,AACAGAGT,-0.0273
9,ACCTTACT,0.0341
10,TAAGGCGA,0.315
11,GATGGATA,0.00148
12,GGTAAACC,-0.139
13,GCCATAAA,0.117
14,AATCCAAT,0.117
15,ACCCCTGG,-0.349
16,CCATACAG,-0.193
17,ACTATAGA,0.0307
18,AGCGGCAA,0.321
19,GAGCCCCA,-0.16
20,AATTGAAC,-0.0925
21,ACTCACTC,-0.0319
22,CAGCAAGC,-0.329
23,CACCACTC,0.153
24,ACCACCGG,-0.134
25,GTCACGCA,-0.0363

row,Sequence,PBM E-score
1,AGTTCAAG,0.138
2,ACCATCTA,-0.142
3,GCCTATGA,-0.119
4,ATGTCTCG,-0.204
5,AGAACCTA,-0.109
6,CATTTGCA,0.0573
7,AAGTTGAA,0.0406
8,CCATACTC,-0.203
9,CGAGCTTC,0.0433
10,AATCCCTC,-0.156
11,AGCGCGCA,0.114
12,TAATATAA,0.288
13,GAAGCGCC,0.337
14,TAGCTTAA,-0.0347
15,ACTATGCA,-0.0895
16,GCTGACTA,-0.129
17,GACGCAAA,0.0112
18,ACATCTCG,-0.12
19,AGGCATTC,0.106
20,AAGGATGC,-0.187
21,CCTGCTAG,-0.243
22,AAGAATCC,-0.0635
23,CCATGCGA,0.0104
24,ATCACTAA,0.0331
25,CCCGCCCC,0.0473

row,Sequence,PBM E-score
1,ATGCGGTC,0.0837
2,AATGAGTG,0.248
3,CTGATCGC,0.00771
4,AGTTCCAT,0.0785
5,AGGTGTAC,-0.083
6,AAACACCT,0.0286
7,TATCGTGA,0.0729
8,GAGTACCA,-0.0895
9,CGTTGCGA,-0.143
10,ACGCACCG,0.0649
11,ATTACTGA,0.0208
12,CTACTGAG,-0.179
13,TCCAAAGA,0.107
14,CCTCAATA,-0.0994
15,GCGCTGAA,-0.0189
16,AAGAAAAA,0.14
17,ATGACCTG,-0.216
18,GGTTGTGA,0.021
19,TTAGACAA,0.155
20,GGCGTCTA,0.184
21,AAGATGTG,0.105
22,GGACTACC,-0.286
23,ACGCCCAC,0.0413
24,CCCGAACC,-0.335
25,CAAACCAG,-0.23

row,Sequence,PBM E-score
1,CCTAAGCC,-0.355
2,CACACCGG,-0.101
3,CACACGCA,-0.0781
4,CCTGGTAG,-0.377
5,CCTTATAC,0.131
6,CAGTCACG,-0.217
7,GGTCCTGA,-0.163
8,CCGGTGCG,0.0017
9,CAGTGGTC,-0.205
10,GGTAACAC,0.02
11,AATTTTCA,0.0155
12,GACACTCA,-0.0595
13,CCACTCTA,-0.045
14,ACCGTCCG,-0.126
15,AAATATTT,0.206
16,CTGCTGGC,-0.201
17,AGTACACC,-0.0861
18,ATATACCG,0.169
19,CGCAGCTA,0.0823
20,TAATGCGA,0.0064
21,CTTTCACC,-0.133
22,CTGCCAGA,-0.0541
23,ACTCCACT,-0.185
24,ACAGCTTG,0.0542
25,AAGCCGGA,0.0672

row,Sequence,PBM E-score
1,AACGTCGC,0.0537
2,CAAGAGCC,0.21
3,CTTGAACA,0.0105
4,TTGAGAAA,0.14
5,GCGGACCA,0.0779
6,ATGTAATA,0.232
7,CACTGGGC,-0.115
8,GCTAATCC,0.0288
9,GGTGCATA,0.0601
10,CAAGATCG,-0.123
11,CTGTGGAA,0.0782
12,CTGTAAGC,-0.00316
13,CTTCACCC,0.102
14,GGCTCCTA,-0.146
15,TACAAGGA,-0.0214
16,AAATTCTT,0.0204
17,TATCTGCA,-0.0952
18,ACCTCCCG,-0.269
19,CAGGGGAC,-0.233
20,CGATGGCG,0.135
21,AATCCGGT,0.0539
22,TGCGCTAA,-0.0463
23,GCCGTTCC,0.432
24,GACTAGAC,-0.2
25,CAAACACG,0.144

row,Sequence,PBM E-score
1,CAGCCCGC,-0.276
2,GAAACCAC,-0.071
3,GTTACGAA,0.0653
4,ACGTGCAA,0.0742
5,AAACAATA,0.242
6,AGTCTCTC,-0.308
7,GTCTCGAA,-0.148
8,ACGCTGCC,0.045
9,TATCTTGA,0.0161
10,CAGCAAAG,-0.0961
11,ATTGGCAG,-0.117
12,AAAGTGCG,0.0942
13,TTAGCAAA,0.177
14,GTATCCAC,-0.116
15,GCGCCAGA,0.0726
16,TCCATTAA,0.0812
17,CGTATGCC,0.186
18,CTCAAAAG,0.0993
19,TACCGCCA,0.00821
20,GACATAGA,0.0833
21,AATGTAGA,-0.106
22,AGCTTGCG,0.0255
23,CTGTATAA,0.0921
24,AGAGTTAG,-0.0424
25,TGTACAAA,0.155

row,Sequence,PBM E-score
1,AGCTCTGC,-0.344
2,GCTTGTAC,0.167
3,CCGGAGCA,-0.181
4,ACCGAACA,0.105
5,CAATTGGC,0.0835
6,ATTCATAG,0.0844
7,GAGCCGAC,-0.156
8,CGCCTATA,-0.0418
9,CATATGGA,0.00529
10,CCTACACC,-0.292
11,GCCTTAGA,0.195
12,TGACGCCA,0.0207
13,AAATTAAT,0.12
14,TCGTGTAA,0.0773
15,AGTCATCG,-0.043
16,GACGGAGA,-0.202
17,ACTAACCC,-0.161
18,CTGAGAAG,-0.216
19,ATTGCCCA,-0.0152
20,GCTCACCC,-0.098
21,CTGCCTTC,-0.115
22,CGCGAAAG,-0.0342
